Paper PMC10290081

Target: Homo sapiens full-length TRPV4 (hTRPV4), C-terminal FLAG-tag and 10x His-tag (human) (UniProt Q9HBA0)
Assay: cryo-EM structure; single-particle cryo-EM of TRPV4 purified in detergent (LMNG/CHS/GDN, 20 mM Tris pH 8.0, 150 mM NaCl) with copurified endogenous Rho GTPase; ligand-free, with 20 uM GSK279, with 20 uM GSK101 + 2 mM GTPgammaS, with 40 uM 4alpha-PDD + 2 mM GTPgammaS

“Homo sapiens full-length TRPV4 (hTRPV4), C-terminal FLAG-tag and 10x His-tag (a stretch of the chain, no sequence given) (natural protein; other documents disagree on this pair)” showed a stoichiometry N of 4 subunits.
